Source: the supplement of paper PMC7826260
The other results are listed elsewhere or left out. One pool of 16,384 single-stranded DNAs met each Rep nickase domain in vitro for 1 h at 37 °C with 3 µM enzyme; only the middle of the 90-letter strands is printed. Numbers give uncut DNA relative to the enzyme-free pool, as log2; more negative means more cut, near 0 not cut, and no call is made. Reads are scaled to the total; uncut strands gain when others are lost, and binding without cutting may add a little.

Legend:
Assay in all cases: uncleaved DNA left, log2 of reads against the no-enzyme library (log2 ratio); higher = less cleavage (more negative = more Rep cleavage of the k-mer); sequences stand for … in CTCGTCCG…ACCGGAGA
[1] = tested on: T1, Rep nickase domain of Muscovy duck circovirus
T1 sequence (protein, residues 1-111, tag omitted): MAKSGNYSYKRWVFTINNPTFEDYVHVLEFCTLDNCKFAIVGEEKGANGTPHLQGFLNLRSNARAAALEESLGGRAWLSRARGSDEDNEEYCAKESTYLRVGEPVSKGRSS
Experimental: (§1)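 A pool of 90-nt single-stranded DNAs with seven random bases just before the constant AC of the nick site (name = the seven bases) was cut by 3 µM recombinant His6-SUMO-tagged Rep nickase domain (300 nM DNA, 50 mM HEPES pH 8.0, 50 mM NaCl, 1 mM MnCl2, 1 h, 37 °C, three replicates). Uncut DNA was amplified and sequenced.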

[2] = tested on: T2, Rep nickase domain of banana bunchy top virus
T2 sequence (protein, residues 1-94, tag omitted): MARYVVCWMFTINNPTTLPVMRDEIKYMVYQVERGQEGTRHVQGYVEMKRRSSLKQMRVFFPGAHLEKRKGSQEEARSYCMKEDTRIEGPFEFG
Experimental: as §1

[3] = tested on: T3, Rep nickase domain of cabbage leaf curl virus
T3 sequence (protein, residues 1-116, tag omitted): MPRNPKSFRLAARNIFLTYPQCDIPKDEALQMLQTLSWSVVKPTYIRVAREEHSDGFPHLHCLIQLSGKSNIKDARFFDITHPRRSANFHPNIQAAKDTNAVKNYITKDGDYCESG
Experimental: as §1

[4] = tested on: T4, Rep nickase domain of chickpea chlorotic dwarf virus
T4 sequence (protein, residues 1-124, tag omitted): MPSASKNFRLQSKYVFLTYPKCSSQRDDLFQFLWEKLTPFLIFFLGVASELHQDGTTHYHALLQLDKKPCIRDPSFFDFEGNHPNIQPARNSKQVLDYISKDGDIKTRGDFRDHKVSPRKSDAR
Experimental: as §1

[5] = tested on: T5, Rep nickase domain of faba bean necrotic yellows virus
T5 sequence (protein, residues 1-98, tag omitted): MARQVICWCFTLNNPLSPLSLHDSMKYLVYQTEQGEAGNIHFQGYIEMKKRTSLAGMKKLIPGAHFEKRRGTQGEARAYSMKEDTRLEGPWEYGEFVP
Experimental: as §1

[6] = tested on: T6, Rep nickase domain of maize striate mosaic virus
T6 sequence (protein, residues 1-117, tag omitted): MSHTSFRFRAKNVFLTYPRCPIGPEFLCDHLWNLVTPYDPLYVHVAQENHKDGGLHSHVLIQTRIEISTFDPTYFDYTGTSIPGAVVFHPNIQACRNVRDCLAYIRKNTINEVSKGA
Experimental: as §1

[7] = tested on: T7, Rep nickase domain of porcine circovirus 2
T7 sequence (protein, residues 2-116, tag omitted): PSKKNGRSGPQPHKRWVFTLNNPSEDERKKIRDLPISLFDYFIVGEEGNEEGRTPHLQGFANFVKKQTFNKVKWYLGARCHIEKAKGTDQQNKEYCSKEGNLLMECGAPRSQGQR
Experimental: as §1

[8] = tested on: T8, Rep nickase domain of tomato golden mosaic virus
T8 sequence (protein, residues 1-124, tag omitted): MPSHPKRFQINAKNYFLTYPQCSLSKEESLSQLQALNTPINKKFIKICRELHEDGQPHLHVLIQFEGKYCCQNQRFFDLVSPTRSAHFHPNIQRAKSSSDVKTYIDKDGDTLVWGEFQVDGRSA
Experimental: as §1

[9] = tested on: T9, Rep nickase domain of tomato yellow leaf curl virus
T9 sequence (protein, residues 1-136, tag omitted): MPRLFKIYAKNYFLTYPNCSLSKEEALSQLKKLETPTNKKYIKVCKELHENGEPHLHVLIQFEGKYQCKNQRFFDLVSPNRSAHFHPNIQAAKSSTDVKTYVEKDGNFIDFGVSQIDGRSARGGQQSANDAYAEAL
Experimental: as §1

[10] = tested on: T10, Rep nickase domain of wheat dwarf virus
T10 sequence (protein, residues 1-137, tag omitted): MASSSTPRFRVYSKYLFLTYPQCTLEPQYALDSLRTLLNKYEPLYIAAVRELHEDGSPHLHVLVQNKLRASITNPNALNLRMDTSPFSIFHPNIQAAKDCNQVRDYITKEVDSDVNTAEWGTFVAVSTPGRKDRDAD
Experimental: as §1

Sequence: CACTAGC
- uncleaved DNA left (log2) [1]: 0.00656
- uncleaved DNA left (log2) [2]: -0.106
- uncleaved DNA left (log2) [3]: -0.433
- uncleaved DNA left (log2) [4]: -0.633
- uncleaved DNA left (log2) [5]: 0.09
- uncleaved DNA left (log2) [6]: -1.08
- uncleaved DNA left (log2) [7]: 0.0634
- uncleaved DNA left (log2) [8]: 0.0466
- uncleaved DNA left (log2) [9]: 0.0555
- uncleaved DNA left (log2) [10]: -0.00348

Sequence: TACCGCA
- uncleaved DNA left (log2) [1]: 0.0445
- uncleaved DNA left (log2) [2]: 0.0578
- uncleaved DNA left (log2) [3]: -0.452
- uncleaved DNA left (log2) [4]: -1.94
- uncleaved DNA left (log2) [5]: 0.025
- uncleaved DNA left (log2) [6]: -1.11
- uncleaved DNA left (log2) [7]: -0.41
- uncleaved DNA left (log2) [8]: -0.0329
- uncleaved DNA left (log2) [9]: -0.0719
- uncleaved DNA left (log2) [10]: -0.233

Sequence: TCCTACA
- uncleaved DNA left (log2) [1]: 0.0209
- uncleaved DNA left (log2) [2]: 0.0298
- uncleaved DNA left (log2) [3]: -0.239
- uncleaved DNA left (log2) [4]: -2.05
- uncleaved DNA left (log2) [5]: 0.11
- uncleaved DNA left (log2) [6]: -0.117
- uncleaved DNA left (log2) [7]: -0.373
- uncleaved DNA left (log2) [8]: -0.00843
- uncleaved DNA left (log2) [9]: 0.0889
- uncleaved DNA left (log2) [10]: -0.286

Sequence: ATGTCCT
- uncleaved DNA left (log2) [1]: -0.374
- uncleaved DNA left (log2) [2]: -0.16
- uncleaved DNA left (log2) [3]: -0.204
- uncleaved DNA left (log2) [4]: -1.9
- uncleaved DNA left (log2) [5]: -0.124
- uncleaved DNA left (log2) [6]: -0.323
- uncleaved DNA left (log2) [7]: -3.2
- uncleaved DNA left (log2) [8]: -0.0739
- uncleaved DNA left (log2) [9]: -0.0486
- uncleaved DNA left (log2) [10]: -0.132

Sequence: ACTCAAT
- uncleaved DNA left (log2) [1]: 0.157
- uncleaved DNA left (log2) [2]: 0.159
- uncleaved DNA left (log2) [3]: -0.0389
- uncleaved DNA left (log2) [4]: -0.479
- uncleaved DNA left (log2) [5]: 0.0629
- uncleaved DNA left (log2) [6]: -0.531
- uncleaved DNA left (log2) [7]: -1.27
- uncleaved DNA left (log2) [8]: 0.0844
- uncleaved DNA left (log2) [9]: 0.0544
- uncleaved DNA left (log2) [10]: -0.088

Sequence: CCTTAGT
- uncleaved DNA left (log2) [1]: -1.85
- uncleaved DNA left (log2) [2]: 0.0755
- uncleaved DNA left (log2) [3]: -0.121
- uncleaved DNA left (log2) [4]: -0.852
- uncleaved DNA left (log2) [5]: 0.0486
- uncleaved DNA left (log2) [6]: -1.07
- uncleaved DNA left (log2) [7]: -3.35
- uncleaved DNA left (log2) [8]: 0.113
- uncleaved DNA left (log2) [9]: 0.0532
- uncleaved DNA left (log2) [10]: 0.0763

Sequence: GTAGGCC
- uncleaved DNA left (log2) [1]: -0.046
- uncleaved DNA left (log2) [2]: 0.162
- uncleaved DNA left (log2) [3]: 0.42
- uncleaved DNA left (log2) [4]: 1.01
- uncleaved DNA left (log2) [5]: -0.12
- uncleaved DNA left (log2) [6]: 1.21
- uncleaved DNA left (log2) [7]: -0.0492
- uncleaved DNA left (log2) [8]: 0.0912
- uncleaved DNA left (log2) [9]: 0.153
- uncleaved DNA left (log2) [10]: 0.156

Sequence: AAAGCGG
- uncleaved DNA left (log2) [1]: 0.0837
- uncleaved DNA left (log2) [2]: -0.0018
- uncleaved DNA left (log2) [3]: 0.321
- uncleaved DNA left (log2) [4]: 1.11
- uncleaved DNA left (log2) [5]: 0.0786
- uncleaved DNA left (log2) [6]: 1.07
- uncleaved DNA left (log2) [7]: 0.23
- uncleaved DNA left (log2) [8]: 0.223
- uncleaved DNA left (log2) [9]: -0.019
- uncleaved DNA left (log2) [10]: 0.091

Sequence: GTGACGA
- uncleaved DNA left (log2) [1]: 0.0353
- uncleaved DNA left (log2) [2]: 0.126
- uncleaved DNA left (log2) [3]: 0.641
- uncleaved DNA left (log2) [4]: 1.69
- uncleaved DNA left (log2) [5]: -0.0655
- uncleaved DNA left (log2) [6]: 1.97
- uncleaved DNA left (log2) [7]: 0.159
- uncleaved DNA left (log2) [8]: 0.0141
- uncleaved DNA left (log2) [9]: 0.0564
- uncleaved DNA left (log2) [10]: 0.0848

Sequence: GCGCCTA
- uncleaved DNA left (log2) [1]: -0.0472
- uncleaved DNA left (log2) [2]: -0.00854
- uncleaved DNA left (log2) [3]: 0.00238
- uncleaved DNA left (log2) [4]: -0.0225
- uncleaved DNA left (log2) [5]: -0.07
- uncleaved DNA left (log2) [6]: 0.415
- uncleaved DNA left (log2) [7]: -0.0291
- uncleaved DNA left (log2) [8]: -0.021
- uncleaved DNA left (log2) [9]: -0.0955
- uncleaved DNA left (log2) [10]: -0.0466

Sequence: CGGAATG
- uncleaved DNA left (log2) [1]: -0.0594
- uncleaved DNA left (log2) [2]: -0.00467
- uncleaved DNA left (log2) [3]: 0.181
- uncleaved DNA left (log2) [4]: 1.21
- uncleaved DNA left (log2) [5]: -0.122
- uncleaved DNA left (log2) [6]: 1.3
- uncleaved DNA left (log2) [7]: -0.00191
- uncleaved DNA left (log2) [8]: 0.076
- uncleaved DNA left (log2) [9]: 0.0721
- uncleaved DNA left (log2) [10]: -0.0406

Sequence: CTTGTAC
- uncleaved DNA left (log2) [1]: -0.0402
- uncleaved DNA left (log2) [2]: -0.0667
- uncleaved DNA left (log2) [3]: -0.0213
- uncleaved DNA left (log2) [4]: -0.981
- uncleaved DNA left (log2) [5]: 0.124
- uncleaved DNA left (log2) [6]: -1.01
- uncleaved DNA left (log2) [7]: -0.0357
- uncleaved DNA left (log2) [8]: -0.0516
- uncleaved DNA left (log2) [9]: 0.0407
- uncleaved DNA left (log2) [10]: 0.0789

Sequence: TTGGAAT
- uncleaved DNA left (log2) [1]: 0.0459
- uncleaved DNA left (log2) [2]: 0.155
- uncleaved DNA left (log2) [3]: 0.299
- uncleaved DNA left (log2) [4]: 1.05
- uncleaved DNA left (log2) [5]: 0.0842
- uncleaved DNA left (log2) [6]: 1.4
- uncleaved DNA left (log2) [7]: 0.138
- uncleaved DNA left (log2) [8]: -0.0228
- uncleaved DNA left (log2) [9]: 0.0275
- uncleaved DNA left (log2) [10]: 0.0253

Sequence: GTCAAGT
- uncleaved DNA left (log2) [1]: -0.0152
- uncleaved DNA left (log2) [2]: 0.0699
- uncleaved DNA left (log2) [3]: 0.336
- uncleaved DNA left (log2) [4]: 0.796
- uncleaved DNA left (log2) [5]: 0.0507
- uncleaved DNA left (log2) [6]: 1.41
- uncleaved DNA left (log2) [7]: 0.0999
- uncleaved DNA left (log2) [8]: 0.0988
- uncleaved DNA left (log2) [9]: 0.117
- uncleaved DNA left (log2) [10]: 0.144

Sequence: GAGACTG
- uncleaved DNA left (log2) [1]: 0.0267
- uncleaved DNA left (log2) [2]: 0.0896
- uncleaved DNA left (log2) [3]: 0.187
- uncleaved DNA left (log2) [4]: 0.81
- uncleaved DNA left (log2) [5]: 0.0438
- uncleaved DNA left (log2) [6]: 1.8
- uncleaved DNA left (log2) [7]: 0.126
- uncleaved DNA left (log2) [8]: 0.125
- uncleaved DNA left (log2) [9]: 0.0862
- uncleaved DNA left (log2) [10]: 0.104
